Experimental data published in ChEMBL document CHEMBL5543144, “Discovery of a Novel Potent Tetrazole Antifungal Candidate with High Selectivity and Broad Spectrum” (J Med Chem, 2024).
pIC50: −log10 of the molar value. ≈ marks a conversion by molar mass, not a printed value.

What was measured:
[1] = target: Voltage-gated inwardly rectifying potassium channel KCNH2 (Homo sapiens, UniProt Q12809)
[2] = target: Cytochrome P450 2D6 (Homo sapiens, UniProt P10635)
[3] = target: Cytochrome P450 2C9 (Homo sapiens, UniProt P11712)
Cytochrome P450 2C9, sequence (P11712 whole entry): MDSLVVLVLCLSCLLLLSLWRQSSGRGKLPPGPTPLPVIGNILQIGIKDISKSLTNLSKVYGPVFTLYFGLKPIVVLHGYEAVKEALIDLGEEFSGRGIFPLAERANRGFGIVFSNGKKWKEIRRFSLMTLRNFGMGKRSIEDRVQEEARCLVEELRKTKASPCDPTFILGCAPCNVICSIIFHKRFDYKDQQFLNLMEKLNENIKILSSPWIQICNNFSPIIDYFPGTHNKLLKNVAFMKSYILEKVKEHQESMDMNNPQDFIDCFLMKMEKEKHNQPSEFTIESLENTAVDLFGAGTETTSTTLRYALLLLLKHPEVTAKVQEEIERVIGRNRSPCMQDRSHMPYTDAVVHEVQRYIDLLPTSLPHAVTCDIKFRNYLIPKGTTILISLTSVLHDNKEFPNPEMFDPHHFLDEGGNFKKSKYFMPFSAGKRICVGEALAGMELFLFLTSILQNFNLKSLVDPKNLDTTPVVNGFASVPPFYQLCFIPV

[4] = target: T1, Cytochrome P450 1A2 (Homo sapiens, UniProt P05177); experiment: Inhibition of CYP1A2 in human liver microsomes using phenacetin as substrate in presence of NADPH by LC-MS/MS analysis
T1 sequence (P05177 whole entry): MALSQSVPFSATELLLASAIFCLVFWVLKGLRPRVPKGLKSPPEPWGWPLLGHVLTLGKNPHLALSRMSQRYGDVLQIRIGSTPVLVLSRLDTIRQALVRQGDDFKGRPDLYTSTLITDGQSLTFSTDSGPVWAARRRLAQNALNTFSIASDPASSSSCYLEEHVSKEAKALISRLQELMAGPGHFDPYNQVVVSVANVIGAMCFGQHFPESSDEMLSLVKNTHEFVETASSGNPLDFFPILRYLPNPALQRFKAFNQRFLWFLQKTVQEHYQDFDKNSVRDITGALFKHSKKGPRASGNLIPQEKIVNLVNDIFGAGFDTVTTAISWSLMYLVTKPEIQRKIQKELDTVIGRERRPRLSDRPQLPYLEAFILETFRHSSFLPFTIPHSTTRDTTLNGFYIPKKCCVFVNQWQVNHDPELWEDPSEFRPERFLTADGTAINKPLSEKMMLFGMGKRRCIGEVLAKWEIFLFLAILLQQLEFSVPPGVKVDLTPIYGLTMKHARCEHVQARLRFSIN

[5] = in vitro; settings: human, caco-2
[6] = target: Cytochrome P450 2C19 (Homo sapiens, UniProt P33261)
Cytochrome P450 2C19, sequence (P33261 whole entry): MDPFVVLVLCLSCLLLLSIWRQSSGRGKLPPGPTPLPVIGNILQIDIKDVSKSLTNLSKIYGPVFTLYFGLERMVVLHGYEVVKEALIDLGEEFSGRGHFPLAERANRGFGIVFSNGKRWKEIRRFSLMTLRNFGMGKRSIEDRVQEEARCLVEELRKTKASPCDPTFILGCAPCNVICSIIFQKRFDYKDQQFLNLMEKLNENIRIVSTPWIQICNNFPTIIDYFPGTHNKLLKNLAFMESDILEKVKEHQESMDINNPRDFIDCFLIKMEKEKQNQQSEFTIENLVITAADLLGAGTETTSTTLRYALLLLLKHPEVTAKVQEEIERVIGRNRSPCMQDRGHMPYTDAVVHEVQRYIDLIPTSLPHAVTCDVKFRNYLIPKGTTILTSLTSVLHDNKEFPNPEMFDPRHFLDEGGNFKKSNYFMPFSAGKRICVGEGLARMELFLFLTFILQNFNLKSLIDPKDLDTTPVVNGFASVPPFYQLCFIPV

[7] = Cytotoxicity against HUVEC cells assessed as inhibition of cell growth incubated for 24 hrs by MTT assay; type: toxicity, cell-based; settings: human

Cytochrome P450 2D6, sequence (P10635 whole entry): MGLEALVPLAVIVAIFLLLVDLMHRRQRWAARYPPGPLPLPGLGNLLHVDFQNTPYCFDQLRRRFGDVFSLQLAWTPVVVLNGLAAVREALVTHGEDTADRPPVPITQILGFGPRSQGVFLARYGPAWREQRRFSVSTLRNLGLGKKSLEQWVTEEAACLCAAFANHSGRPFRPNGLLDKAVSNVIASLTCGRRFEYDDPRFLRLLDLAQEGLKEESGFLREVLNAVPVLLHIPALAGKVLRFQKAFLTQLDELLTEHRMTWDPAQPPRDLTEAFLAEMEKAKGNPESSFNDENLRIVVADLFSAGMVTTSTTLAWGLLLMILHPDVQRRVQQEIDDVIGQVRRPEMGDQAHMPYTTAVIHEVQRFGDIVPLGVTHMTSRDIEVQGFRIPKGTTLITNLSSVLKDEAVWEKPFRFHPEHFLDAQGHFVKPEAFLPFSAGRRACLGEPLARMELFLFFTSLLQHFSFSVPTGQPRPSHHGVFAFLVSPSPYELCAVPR
Voltage-gated inwardly rectifying potassium channel KCNH2, sequence (Q12809 whole entry): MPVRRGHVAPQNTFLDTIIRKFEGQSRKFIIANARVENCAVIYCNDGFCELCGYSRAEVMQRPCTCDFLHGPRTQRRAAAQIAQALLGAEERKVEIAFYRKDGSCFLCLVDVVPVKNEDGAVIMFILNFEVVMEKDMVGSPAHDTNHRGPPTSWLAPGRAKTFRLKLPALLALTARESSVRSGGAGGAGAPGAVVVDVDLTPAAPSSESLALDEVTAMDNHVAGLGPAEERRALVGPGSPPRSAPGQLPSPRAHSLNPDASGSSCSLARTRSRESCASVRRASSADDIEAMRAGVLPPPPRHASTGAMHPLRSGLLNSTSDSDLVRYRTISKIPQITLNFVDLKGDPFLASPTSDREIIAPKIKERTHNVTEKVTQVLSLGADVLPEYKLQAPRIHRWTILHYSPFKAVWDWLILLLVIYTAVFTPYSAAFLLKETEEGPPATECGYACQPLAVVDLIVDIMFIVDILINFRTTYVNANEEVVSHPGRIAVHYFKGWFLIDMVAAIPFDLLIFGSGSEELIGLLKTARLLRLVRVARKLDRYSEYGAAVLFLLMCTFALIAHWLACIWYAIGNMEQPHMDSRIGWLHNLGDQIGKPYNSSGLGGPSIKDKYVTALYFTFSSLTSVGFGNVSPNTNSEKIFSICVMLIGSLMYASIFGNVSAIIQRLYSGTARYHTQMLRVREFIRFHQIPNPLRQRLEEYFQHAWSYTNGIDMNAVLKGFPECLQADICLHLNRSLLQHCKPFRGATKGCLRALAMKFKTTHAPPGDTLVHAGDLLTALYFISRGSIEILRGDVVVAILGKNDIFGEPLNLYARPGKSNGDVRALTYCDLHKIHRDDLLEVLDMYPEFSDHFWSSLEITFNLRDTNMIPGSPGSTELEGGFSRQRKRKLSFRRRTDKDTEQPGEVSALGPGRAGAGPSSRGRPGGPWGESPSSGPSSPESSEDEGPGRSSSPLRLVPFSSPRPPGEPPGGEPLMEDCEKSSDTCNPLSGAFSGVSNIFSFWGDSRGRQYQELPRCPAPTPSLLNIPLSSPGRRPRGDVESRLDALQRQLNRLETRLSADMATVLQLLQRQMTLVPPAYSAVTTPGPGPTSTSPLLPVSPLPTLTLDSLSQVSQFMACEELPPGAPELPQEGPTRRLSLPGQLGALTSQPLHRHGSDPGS

| Compound | pIC50 [1] | pIC50 [2] | pIC50 [3] | pIC50 [4] | IC50 at 24 h [5] [µg/mL] | pIC50 [6] | IC50 at 24 h [7] [µg/mL] |
| --- | --- | --- | --- | --- | --- | --- | --- |
| C[C@@H](n1ccc2cc(Cl)ccc2c1=O)[C@](O)(Cn1cnnn1)c1ccc(F)cc1F | 4.80 | 4.84 | 5.13 | 4.61 | 64 (≈ 148 µM) | 5.28 | > 64 |
| C[C@@H](n1ncc2cc(Cl)ccc2c1=O)[C@](O)(Cn1cnnn1)c1ccc(F)cc1F |  | 4.74 | 4.72 | 4.32 |  | 4.98 |  |
| C[C@@H](n1ncc2cc(Cl)ccc2c1=O)[C@](O)(Cn1cncn1)c1ccc(F)cc1F |  | < 4.00 | 4.97 | < 4.00 |  | 5.10 |  |
| C[C@@H](n1ccc2cc(Cl)ccc2c1=O)[C@](O)(Cn1cncn1)c1ccc(F)cc1F |  | 4.16 | 5.03 | 4.11 |  | 5.16 |  |
| C[C@@H](n1cnc2cc(Cl)ccc2c1=O)[C@](O)(Cn1cnnn1)c1ccc(F)cc1F |  | 4.79 | 4.82 | 4.29 |  | 4.92 |  |
